This is one part of the list. Cut-off read from the data, not from the text of the source: active = 3.2 or more and inactive = the rest. Only a few entries rise above the background.

The results in this text go back to the supplement of paper PMC10369915.
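Note: displayed peptides selected on beads carrying the immobilized SH2 domain, with library peptides lacking any tyrosine serving as negative controls.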

The first assay concerns the target SHP2 C-SH2 domain E139D. Nature of the assay: enrichment score (SH2-bound / input frequency) (ratio); bacterial display of known human phosphotyrosine sites (pTyr-Var adds point mutants) read by sequencing; higher = stronger binding; tyrosines were phosphorylated by kinases first. The following applies: peptide library: pTyr-Var.
Consider RELGEYPLAEF [ALDH1A3_Y492_A493P_YF], for which the enrichment score was inactive: 0.557.

As to RELGEYALAEY [ALDH1A3_Y492], the enrichment score was inactive: 0.72.

Regarding LKEIHYPPFTD [ALDH3B2_Y362_YF], the enrichment score is inactive: 1.02.

As to RSSNTYTLTDV [ALCAM_Y298], the enrichment score is inactive: 0.736.

With LKEIRYPPFTD [ALDH3B2_Y362_H361R_YF], the enrichment score is inactive: 1.65.

With DVCKKYAEAKD [ALB_Y343_N342K], the enrichment score is inactive: 0.539.

Consider EVNETYVPKEF [ALB_Y521_D518N], for which the enrichment score was inactive: 0.517.

Regarding LFSNAYLSDLA [ALDH1A1_Y119_N121S_YF], the enrichment score is inactive: 1.2.

Consider LKEIHYPPYTD [ALDH3B2_Y362], for which the enrichment score was inactive: 0.829.

Turning to IHYPPYTDWNQ [ALDH3B2_Y365], the enrichment score was inactive: 1.26.

Consider GQKVAYGGTED [ALDH3A1_Y305_G309E], for which the enrichment score is inactive: 0.498.

Take VVCKNYAEAKD [ALB_Y343_D338V]: the enrichment score was inactive: 0.83.

Consider LFSNAYLNDLA [ALDH1A1_Y119_YF], for which the enrichment score was inactive: 1.43.

Consider EARRVYGDIIY [ALDH5A1_Y175_H180Y], for which the enrichment score was inactive: 0.86.

Regarding LEHCQYVTEKV [ALDOB_Y204], the enrichment score is inactive: 0.883.

GVCKNYAEAKD [ALB_Y343_D338G]: the enrichment score was inactive: 0.562.

Take AYQGKYTPSGQ [ALDOA_Y343_C339Y]: the enrichment score was inactive: 0.607.

Regarding EARRVYGDIIH [ALDH5A1_Y175], the enrichment score was inactive: 0.573.

Turning to RELGEYPLAEY [ALDH1A3_Y492_A493P], the enrichment score is inactive: 0.68.

A further assay addresses SHP2 C-SH2 domain wild-type. Described as above. As to conditions: peptide library: pTyr-Var.
For the molecule RELGEYPLAEF [ALDH1A3_Y492_A493P_YF], the enrichment score was inactive: 1.

As to RELGEYALAEY [ALDH1A3_Y492], the enrichment score was inactive: 0.526.

With LKEIHYPPFTD [ALDH3B2_Y362_YF], the enrichment score is inactive: 0.975.

As to RSSNTYTLTDV [ALCAM_Y298], the enrichment score is inactive: 0.81.

LKEIRYPPFTD [ALDH3B2_Y362_H361R_YF]: the enrichment score is inactive: 1.01.

For the molecule DVCKKYAEAKD [ALB_Y343_N342K], the enrichment score was inactive: 0.682.

On to EVNETYVPKEF [ALB_Y521_D518N], for which the enrichment score was inactive: 0.465.

With LFSNAYLSDLA [ALDH1A1_Y119_N121S_YF], the enrichment score is inactive: 0.859.

Regarding LKEIHYPPYTD [ALDH3B2_Y362], the enrichment score is inactive: 0.703.

As to IHYPPYTDWNQ [ALDH3B2_Y365], the enrichment score is inactive: 0.92.

In the case of GQKVAYGGTED [ALDH3A1_Y305_G309E], the enrichment score was inactive: 0.697.

As to VVCKNYAEAKD [ALB_Y343_D338V], the enrichment score is inactive: 0.75.

LFSNAYLNDLA [ALDH1A1_Y119_YF]: the enrichment score was inactive: 1.17.

In the case of EARRVYGDIIY [ALDH5A1_Y175_H180Y], the enrichment score was inactive: 0.759.

For the molecule LEHCQYVTEKV [ALDOB_Y204], the enrichment score is inactive: 1.4.

As to GVCKNYAEAKD [ALB_Y343_D338G], the enrichment score was inactive: 0.443.

Consider AYQGKYTPSGQ [ALDOA_Y343_C339Y], for which the enrichment score was inactive: 0.822.

Turning to EARRVYGDIIH [ALDH5A1_Y175], the enrichment score is inactive: 0.723.

Consider RELGEYPLAEY [ALDH1A3_Y492_A493P], for which the enrichment score was inactive: 0.776.

Another assay concerns the target SHP2 N-SH2 domain L43F. Described as above. As to conditions: peptide library: pTyr-Var.
As for RELGEYPLAEF [ALDH1A3_Y492_A493P_YF], the enrichment score was inactive: 0.498.

For the molecule RELGEYALAEY [ALDH1A3_Y492], the enrichment score is inactive: 0.831.

In the case of LKEIHYPPFTD [ALDH3B2_Y362_YF], the enrichment score is inactive: 1.04.

With RSSNTYTLTDV [ALCAM_Y298], the enrichment score is inactive: 0.989.

For the molecule LKEIRYPPFTD [ALDH3B2_Y362_H361R_YF], the enrichment score is inactive: 1.26.

Take DVCKKYAEAKD [ALB_Y343_N342K]: the enrichment score was inactive: 0.695.

EVNETYVPKEF [ALB_Y521_D518N]: the enrichment score was inactive: 0.588.

Take LFSNAYLSDLA [ALDH1A1_Y119_N121S_YF]: the enrichment score is inactive: 0.803.

As for LKEIHYPPYTD [ALDH3B2_Y362], the enrichment score is inactive: 0.651.

With IHYPPYTDWNQ [ALDH3B2_Y365], the enrichment score was inactive: 0.969.

Consider GQKVAYGGTED [ALDH3A1_Y305_G309E], for which the enrichment score is inactive: 0.556.

As for VVCKNYAEAKD [ALB_Y343_D338V], the enrichment score was inactive: 0.635.

Turning to LFSNAYLNDLA [ALDH1A1_Y119_YF], the enrichment score was inactive: 1.27.

For EARRVYGDIIY [ALDH5A1_Y175_H180Y], the enrichment score was inactive: 0.748.

In the case of LEHCQYVTEKV [ALDOB_Y204], the enrichment score is inactive: 0.914.

Regarding GVCKNYAEAKD [ALB_Y343_D338G], the enrichment score is inactive: 0.648.

Consider AYQGKYTPSGQ [ALDOA_Y343_C339Y], for which the enrichment score is inactive: 0.478.

As for EARRVYGDIIH [ALDH5A1_Y175], the enrichment score is inactive: 0.725.

As for RELGEYPLAEY [ALDH1A3_Y492_A493P], the enrichment score is inactive: 0.582.

In a further assay the target is SHP2 N-SH2 domain T42A. The description is as above. The following applies: peptide library: pTyr-Var.
On to RELGEYPLAEF [ALDH1A3_Y492_A493P_YF], for which the enrichment score was inactive: 0.647.

Take RELGEYALAEY [ALDH1A3_Y492]: the enrichment score was inactive: 0.875.

LKEIHYPPFTD [ALDH3B2_Y362_YF]: the enrichment score was inactive: 0.758.

For RSSNTYTLTDV [ALCAM_Y298], the enrichment score is inactive: 1.82.

As to LKEIRYPPFTD [ALDH3B2_Y362_H361R_YF], the enrichment score is inactive: 0.974.

For DVCKKYAEAKD [ALB_Y343_N342K], the enrichment score is inactive: 0.493.

For the molecule EVNETYVPKEF [ALB_Y521_D518N], the enrichment score was inactive: 0.526.

On to LFSNAYLSDLA [ALDH1A1_Y119_N121S_YF], for which the enrichment score is inactive: 0.821.

On to LKEIHYPPYTD [ALDH3B2_Y362], for which the enrichment score was inactive: 0.688.

Consider IHYPPYTDWNQ [ALDH3B2_Y365], for which the enrichment score was inactive: 0.978.

As to GQKVAYGGTED [ALDH3A1_Y305_G309E], the enrichment score is inactive: 0.538.

On to VVCKNYAEAKD [ALB_Y343_D338V], for which the enrichment score is inactive: 0.642.

As for LFSNAYLNDLA [ALDH1A1_Y119_YF], the enrichment score is inactive: 1.51.

Turning to EARRVYGDIIY [ALDH5A1_Y175_H180Y], the enrichment score was inactive: 0.818.

As for LEHCQYVTEKV [ALDOB_Y204], the enrichment score was inactive: 1.17.

On to GVCKNYAEAKD [ALB_Y343_D338G], for which the enrichment score is inactive: 0.5.

For AYQGKYTPSGQ [ALDOA_Y343_C339Y], the enrichment score is inactive: 0.531.

With EARRVYGDIIH [ALDH5A1_Y175], the enrichment score was inactive: 0.625.

For RELGEYPLAEY [ALDH1A3_Y492_A493P], the enrichment score was inactive: 0.796.

The target in a further assay is SHP2 N-SH2 domain T52S. The description is as above. The following applies: peptide library: pTyr-Var.
As for RELGEYPLAEF [ALDH1A3_Y492_A493P_YF], the enrichment score was inactive: 0.623.

As for RELGEYALAEY [ALDH1A3_Y492], the enrichment score was inactive: 0.812.

For LKEIHYPPFTD [ALDH3B2_Y362_YF], the enrichment score was inactive: 0.933.

On to RSSNTYTLTDV [ALCAM_Y298], for which the enrichment score is inactive: 1.02.

LKEIRYPPFTD [ALDH3B2_Y362_H361R_YF]: the enrichment score is inactive: 1.2.

In the case of DVCKKYAEAKD [ALB_Y343_N342K], the enrichment score was inactive: 0.55.

As to EVNETYVPKEF [ALB_Y521_D518N], the enrichment score was inactive: 0.59.

As to LFSNAYLSDLA [ALDH1A1_Y119_N121S_YF], the enrichment score is inactive: 1.24.

As to LKEIHYPPYTD [ALDH3B2_Y362], the enrichment score is inactive: 0.879.

As to IHYPPYTDWNQ [ALDH3B2_Y365], the enrichment score was inactive: 0.845.

Regarding GQKVAYGGTED [ALDH3A1_Y305_G309E], the enrichment score was inactive: 0.602.

On to VVCKNYAEAKD [ALB_Y343_D338V], for which the enrichment score is inactive: 0.604.

With LFSNAYLNDLA [ALDH1A1_Y119_YF], the enrichment score was inactive: 1.25.

Regarding EARRVYGDIIY [ALDH5A1_Y175_H180Y], the enrichment score was inactive: 0.87.

On to LEHCQYVTEKV [ALDOB_Y204], for which the enrichment score was inactive: 0.861.

As for GVCKNYAEAKD [ALB_Y343_D338G], the enrichment score is inactive: 0.588.

Regarding AYQGKYTPSGQ [ALDOA_Y343_C339Y], the enrichment score is inactive: 0.692.

Consider EARRVYGDIIH [ALDH5A1_Y175], for which the enrichment score was inactive: 0.899.

Consider RELGEYPLAEY [ALDH1A3_Y492_A493P], for which the enrichment score is inactive: 0.597.

The next assay deals with SHP2 N-SH2 domain wild-type. The assay is described as above. The following applies: peptide library: pTyr-Var.
With RELGEYPLAEF [ALDH1A3_Y492_A493P_YF], the enrichment score is inactive: 0.561.

For RELGEYALAEY [ALDH1A3_Y492], the enrichment score was inactive: 0.819.

Take LKEIHYPPFTD [ALDH3B2_Y362_YF]: the enrichment score was inactive: 0.862.

For the molecule RSSNTYTLTDV [ALCAM_Y298], the enrichment score was inactive: 0.872.

As to LKEIRYPPFTD [ALDH3B2_Y362_H361R_YF], the enrichment score is inactive: 1.62.

For the molecule DVCKKYAEAKD [ALB_Y343_N342K], the enrichment score is inactive: 0.944.

For the molecule EVNETYVPKEF [ALB_Y521_D518N], the enrichment score was inactive: 0.653.

Consider LFSNAYLSDLA [ALDH1A1_Y119_N121S_YF], for which the enrichment score was inactive: 0.707.

For the molecule LKEIHYPPYTD [ALDH3B2_Y362], the enrichment score was inactive: 0.66.

In the case of IHYPPYTDWNQ [ALDH3B2_Y365], the enrichment score is inactive: 0.911.

Consider GQKVAYGGTED [ALDH3A1_Y305_G309E], for which the enrichment score is inactive: 0.573.

For the molecule VVCKNYAEAKD [ALB_Y343_D338V], the enrichment score is inactive: 0.949.

As for LFSNAYLNDLA [ALDH1A1_Y119_YF], the enrichment score is inactive: 1.14.

In the case of EARRVYGDIIY [ALDH5A1_Y175_H180Y], the enrichment score was inactive: 0.807.

LEHCQYVTEKV [ALDOB_Y204]: the enrichment score was inactive: 1.22.

On to GVCKNYAEAKD [ALB_Y343_D338G], for which the enrichment score is inactive: 0.542.

On to AYQGKYTPSGQ [ALDOA_Y343_C339Y], for which the enrichment score is inactive: 0.667.

For the molecule EARRVYGDIIH [ALDH5A1_Y175], the enrichment score is inactive: 0.809.

Turning to RELGEYPLAEY [ALDH1A3_Y492_A493P], the enrichment score is inactive: 1.33.
